In general, IC50 refers to the concentration needed to halve the response being measured.

The IC50 comes from the fitted curve, where viability falls to half of the control; a fit beyond the top or the lowest dose is shown as a bound at that dose. For AUC the same curve is integrated over the 256-fold range of doses and scaled to a fraction; it is 1 without any effect and falls as sensitivity rises.

Compound in this experiment: N#CC[C@H](C1CCCC1)n1cc(-c2ncnc3[nH]ccc23)cn1 [Ruxolitinib]
As to the kind of experiment: Viability of human cancer cell lines after 72 h of drug (GDSC screen). The procedure:
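Human cancer cell lines in 384-well plates, medium with 10% serum, drug for 72 h over a 256-fold dose range (nine 2-fold or five 4-fold steps up to the top dose). Adherent lines were fixed and stained with the nucleic acid dye Syto60, suspension lines read with resazurin; signal relative to control wells, capped at 0 and 100%. One two-parameter sigmoid per drug and line, fitted in a mixed model over all curves with the slope shared within a line.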

With “H2595 (mesothelioma, adherent, top dose 5.24 µM)”, the AUC worked out at 0.978 and the IC50 is more than 5.24 µM.
Consider “WM793B (melanoma, adherent, top dose 5.24 µM)”, for which the AUC stood at 0.967 and the IC50 was more than 5.24 µM.
The like results for “SK-MEL-3 (melanoma, adherent, top dose 5.24 µM)” were, in that order, 0.982 and more than 5.24 µM.
The like results for “KMS-11 (myeloma, suspension, top dose 5.24 µM)” were, in that order, 0.991 and more than 5.24 µM.
The corresponding values for “PEO1 (ovary, adherent, top dose 5.24 µM)” are 0.984 and more than 5.24 µM.
For “NCI-H748 (small cell lung carcinoma, suspension, top dose 5.24 µM)”, the AUC worked out at 0.947 and the IC50 is more than 5.24 µM.
Consider “P12-ICHIKAWA (T-cell lymphoblastic leukaemia, suspension, top dose 5.24 µM)”, for which the AUC turned out to be 0.974 and the 50% inhibitory concentration (IC50) was more than 5.24 µM.
In the case of “SN12C (kidney, adherent, top dose 5.24 µM)”, the AUC worked out at 0.985 and the IC50 was more than 5.24 µM.
On to “DJM-1 (skin, adherent, top dose 5.24 µM)”, for which the AUC is 0.989 and the IC50 is more than 5.24 µM.
The corresponding values for “IST-MES1 (mesothelioma, adherent, top dose 5.24 µM)” are 0.987 and more than 5.24 µM.
On to “NCI-H2135 (non-small cell lung carcinoma, adherent, top dose 5.24 µM)”, for which the AUC came to 0.989 and the IC50 was more than 5.24 µM.
The corresponding values for “HCC1806 (breast, adherent, top dose 5.24 µM)” are 0.989 and more than 5.24 µM.
On to “TGW (neuroblastoma, adherent, top dose 5.24 µM)”, for which the AUC turned out to be 0.992 and the 50% inhibitory concentration (IC50) is more than 5.24 µM.
The corresponding values for “MFH-ino (soft tissue, adherent, top dose 5.24 µM)” are 0.98 and more than 5.24 µM.
For “Daoy (medulloblastoma, adherent, top dose 5.24 µM)”, the AUC is 0.988 and the IC50 is more than 5.24 µM.
As for “HCC-44 (lung adenocarcinoma, adherent, top dose 5.24 µM)”, the AUC was determined as 0.966 and the half-inhibitory concentration (IC50) was more than 5.24 µM.
Regarding “NB(TU)1-10 (neuroblastoma, adherent, top dose 5.24 µM)”, the AUC was determined as 0.993 and the IC50 was more than 5.24 µM.
As to “ABC-1 (lung adenocarcinoma, adherent, top dose 5.24 µM)”, the AUC came out at 0.982 and the IC50 was more than 5.24 µM.
On to “CCRF-CEM (lymphoblastic leukaemia, suspension, top dose 5.24 µM)”, for which the AUC amounted to 0.99 and the IC50 is more than 5.24 µM.
Take “GI-1 (glioma, adherent, top dose 5.24 µM)”: the AUC is 0.971 and the IC50 was more than 5.24 µM.
The corresponding values for “CP66-MEL (melanoma, adherent, top dose 5.24 µM)” are 0.985 and more than 5.24 µM.
For “SNU-398 (liver, adherent, top dose 5.24 µM)”, the AUC worked out at 0.985 and the IC50 is more than 5.24 µM.
The corresponding values for “RPMI-6666 (Hodgkin lymphoma, suspension, top dose 5.24 µM)” are 0.974 and more than 5.24 µM.
As to “KM12 (large intestine, adherent, top dose 5.24 µM)”, the AUC was 0.915 and the half-maximal inhibitory concentration (IC50) was more than 5.24 µM.
In the case of “HH (T-cell leukaemia, suspension, top dose 5.24 µM)”, the AUC was 0.978 and the IC50 was more than 5.24 µM.
The like results for “CAL-12T (non-small cell lung carcinoma, adherent, top dose 5.24 µM)” were, in that order, 0.95 and more than 5.24 µM.
For the cell line “PL18 (pancreas, adherent, top dose 5.24 µM)”, the AUC is 0.988 and the IC50 was more than 5.24 µM.
The corresponding values for “TYK-nu (ovary, adherent, top dose 5.24 µM)” are 0.984 and more than 5.24 µM.
The corresponding values for “Hs683 (glioma, adherent, top dose 5.24 µM)” are 0.988 and more than 5.24 µM.
With “OV-56 (ovary, adherent, top dose 5.24 µM)”, the AUC is 0.989 and the IC50 was more than 5.24 µM.
The like results for “D-392MG (glioma, adherent, top dose 5.24 µM)” were, in that order, 0.979 and more than 5.24 µM.
The corresponding values for “CaR-1 (large intestine, adherent, top dose 5.24 µM)” are 0.974 and more than 5.24 µM.
For “KP-N-YS (neuroblastoma, adherent, top dose 5.24 µM)”, the AUC was 0.953 and the IC50 was more than 5.24 µM.
For “AN3-CA (endometrium, adherent, top dose 5.24 µM)”, the AUC was 0.984 and the IC50 was more than 5.24 µM.
Consider “COR-L105 (lung adenocarcinoma, adherent, top dose 5.24 µM)”, for which the AUC came out at 0.934 and the IC50 was more than 5.24 µM.
The corresponding values for “H290 (mesothelioma, adherent, top dose 5.24 µM)” are 0.978 and more than 5.24 µM.
As for “RERF-GC-1B (stomach, adherent, top dose 5.24 µM)”, the AUC turned out to be 0.983 and the IC50 was more than 5.24 µM.
The corresponding values for “BC-3 (B-cell lymphoma, suspension, top dose 5.24 µM)” are 0.875 and 4.19 µM.
As for “SUIT-2 (pancreas, adherent, top dose 5.24 µM)”, the AUC worked out at 0.978 and the IC50 is more than 5.24 µM.
On to “TC-71 (Ewing sarcoma, adherent, top dose 5.24 µM)”, for which the AUC turned out to be 0.984 and the IC50 was more than 5.24 µM.
In the case of “23132-87 (stomach, adherent, top dose 5.24 µM)”, the AUC is 0.986 and the IC50 was more than 5.24 µM.
The like results for “MLMA (hairy cell leukaemia, semi-adherent, top dose 5.24 µM)” were, in that order, 0.916 and more than 5.24 µM.
As to “KYSE-520 (oesophagus, adherent, top dose 5.24 µM)”, the AUC amounted to 0.98 and the IC50 was more than 5.24 µM.
The like results for “MDA-MB-157 (breast, adherent, top dose 5.24 µM)” were, in that order, 0.987 and more than 5.24 µM.
Consider “HCC1937 (breast, adherent, top dose 5.24 µM)”, for which the AUC was found to be 0.985 and the 50% inhibitory concentration (IC50) is more than 5.24 µM.
With “KE-37 (lymphoblastic leukaemia, suspension, top dose 5.24 µM)”, the AUC was 0.99 and the concentration for half-maximal inhibition (IC50) is more than 5.24 µM.
The corresponding values for “EW-13 (Ewing sarcoma, suspension, top dose 5.24 µM)” are 0.979 and more than 5.24 µM.
As for “LU-139 (small cell lung carcinoma, suspension, top dose 5.24 µM)”, the AUC came to 0.935 and the 50% inhibitory concentration (IC50) is more than 5.24 µM.
The corresponding values for “NCI-H2052 (mesothelioma, adherent, top dose 5.24 µM)” are 0.977 and more than 5.24 µM.
For the cell line “IST-SL1 (small cell lung carcinoma, semi-adherent, top dose 5.24 µM)”, the AUC turned out to be 0.979 and the half-inhibitory concentration (IC50) was more than 5.24 µM.
The corresponding values for “huH-1 (liver, adherent, top dose 5.24 µM)” are 0.984 and more than 5.24 µM.
The corresponding values for “HuH-7 (liver, adherent, top dose 5.24 µM)” are 0.985 and more than 5.24 µM.
The corresponding values for “UACC-812 (breast, adherent, top dose 5.24 µM)” are 0.99 and more than 5.24 µM.
With “H2369 (mesothelioma, adherent, top dose 5.24 µM)”, the AUC stood at 0.987 and the IC50 is more than 5.24 µM.
“PCI-6A (head and neck, adherent, top dose 5.24 µM)”: the AUC was 0.985 and the half-inhibitory concentration (IC50) is more than 5.24 µM.
In the case of “OAW-42 (ovary, adherent, top dose 5.24 µM)”, the AUC is 0.983 and the IC50 is more than 5.24 µM.
The like results for “LB2241-RCC (kidney, adherent, top dose 5.24 µM)” were, in that order, 0.984 and more than 5.24 µM.
As for “MKN28 (stomach, adherent, top dose 5.24 µM)”, the AUC is 0.986 and the half-maximal inhibitory concentration (IC50) was more than 5.24 µM.
The corresponding values for “SK-MEL-24 (melanoma, adherent, top dose 5.24 µM)” are 0.97 and more than 5.24 µM.
The corresponding values for “JHH-1 (liver, adherent, top dose 5.24 µM)” are 0.978 and more than 5.24 µM.
For the cell line “NCI-H1781 (lung adenocarcinoma, adherent, top dose 5.24 µM)”, the AUC was 0.989 and the IC50 was more than 5.24 µM.
On to “JJN-3 (haematopoietic neoplasm, suspension, top dose 5.24 µM)”, for which the AUC amounted to 0.99 and the IC50 was more than 5.24 µM.
The like results for “GB-1 (glioma, adherent, top dose 5.24 µM)” were, in that order, 0.983 and more than 5.24 µM.
The like results for “CCK-81 (large intestine, adherent, top dose 5.24 µM)” were, in that order, 0.99 and more than 5.24 µM.
Regarding “WSU-DLCL2 (B-cell lymphoma, suspension, top dose 5.24 µM)”, the AUC was found to be 0.993 and the IC50 is more than 5.24 µM.
The corresponding values for “FU-OV-1 (ovary, adherent, top dose 5.24 µM)” are 0.98 and more than 5.24 µM.

The values above are taken from the supplement of paper PMC4967469.
